Out of some 310,000 compounds screened, about 14,000 (4.5%) showed an effect of 50% or more. Effects have a minus sign here. The list shows a part of the results.
The molecules below were run against human ether-à-go-go-related gene (hERG) potassium channel (human, UniProt Q12809) (assay: primary screen, population patch clamp on CHO cells stably expressing hERG).
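Also: peak tail current of the secondary pulse compared with the same well before compound.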

Sequence of human ether-à-go-go-related gene (hERG) potassium channel (Q12809 whole entry, looked up): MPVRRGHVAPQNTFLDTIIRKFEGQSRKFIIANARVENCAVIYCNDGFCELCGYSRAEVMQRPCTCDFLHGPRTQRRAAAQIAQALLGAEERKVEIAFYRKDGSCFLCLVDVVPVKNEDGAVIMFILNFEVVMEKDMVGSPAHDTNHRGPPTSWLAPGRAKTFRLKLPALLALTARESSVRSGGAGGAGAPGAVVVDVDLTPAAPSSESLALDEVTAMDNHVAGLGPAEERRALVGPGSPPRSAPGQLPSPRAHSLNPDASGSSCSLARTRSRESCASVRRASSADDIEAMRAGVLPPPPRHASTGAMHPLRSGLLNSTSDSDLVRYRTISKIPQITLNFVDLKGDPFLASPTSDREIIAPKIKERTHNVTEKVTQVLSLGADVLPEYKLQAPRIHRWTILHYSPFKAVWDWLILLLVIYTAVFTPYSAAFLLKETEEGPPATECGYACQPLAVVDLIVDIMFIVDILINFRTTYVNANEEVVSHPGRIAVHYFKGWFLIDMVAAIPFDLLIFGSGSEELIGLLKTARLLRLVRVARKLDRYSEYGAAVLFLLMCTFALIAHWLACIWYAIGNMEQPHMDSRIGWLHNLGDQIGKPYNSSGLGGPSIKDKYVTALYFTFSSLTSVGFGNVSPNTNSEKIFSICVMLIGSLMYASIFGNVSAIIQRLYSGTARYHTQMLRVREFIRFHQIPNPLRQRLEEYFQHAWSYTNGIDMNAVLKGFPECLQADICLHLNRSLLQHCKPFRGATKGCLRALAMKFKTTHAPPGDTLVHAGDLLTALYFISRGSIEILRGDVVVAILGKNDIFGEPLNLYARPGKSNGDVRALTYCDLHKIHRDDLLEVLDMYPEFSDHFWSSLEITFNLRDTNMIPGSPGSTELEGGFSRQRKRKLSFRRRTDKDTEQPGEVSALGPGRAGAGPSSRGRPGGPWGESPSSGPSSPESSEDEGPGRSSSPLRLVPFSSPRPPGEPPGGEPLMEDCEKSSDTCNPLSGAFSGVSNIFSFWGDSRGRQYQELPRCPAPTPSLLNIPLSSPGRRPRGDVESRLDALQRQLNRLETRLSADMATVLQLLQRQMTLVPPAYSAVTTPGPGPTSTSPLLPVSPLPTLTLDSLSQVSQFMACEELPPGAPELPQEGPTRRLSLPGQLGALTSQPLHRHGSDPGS

Row | Compound | hERG current change (%, negative = inhibition) at 10uM [%]
1 | CCc1[nH]nc2c1C(c1ccsc1)C(C#N)=C(N)O2 (stereo not drawn) | -13.1
2 | O=C(NCc1ccc2c(c1)OCO2)C1CCN(S(=O)(=O)c2cccc3nsnc23)CC1 | 29.7
3 | COc1ccc([N+](=O)[O-])cc1NC(=O)C(C)Sc1nc(C)c(C)c(C)n1 (stereo not drawn) | -44.4
4 | COc1cccc(C2=NOC(C(=O)Nc3c(C)n(C)n(-c4ccccc4)c3=O)C2)c1 (stereo not drawn) | 5.34
5 | O=C(Cn1cc(C(F)(F)F)cc(Cl)c1=O)NCCc1ccc(Cl)cc1Cl | -11.3
6 | OCC[C@@H]1C[C@@H](O)[C@H](O)[C@]2(CCCO2)O1 | -9.55
7 | COc1ccc(S(=O)(=O)N(C)CC(=O)NCc2cccnc2)cc1 | -31.8
8 | CC(C)Oc1ccc(C(=O)NCC(=O)N2CCN(S(=O)(=O)/C=C/c3ccccc3)CC2)cc1 | -67.6
9 | CC(C)CNS(=O)(=O)c1ccc(CCC(=O)NCCC2=CCCCC2)cc1 | 11.7
10 | CCOC(=O)C1=C(COC(=O)/C=C/c2cc(Br)ccc2F)NC(=O)NC1C (stereo not drawn) | 10.6
11 | O=C(CN1C(=O)NC2(CCCC2)C1=O)OCc1ccccc1 | 11.5
12 | CCNC(=O)OCC12CC3CC(CC(C3)C1)C2 | -5.85
13 | COc1ccc2c(c1)c1ncn(CCCN3CCOCC3)c(=O)c1n2C | -21.4
14 | O=C(OC1CCCCC1=O)c1cc(S(=O)(=O)N2CCOCC2)ccc1F (stereo not drawn) | 6.49
15 | CCOc1ccc(Cn2cc(F)c(=O)[nH]c2=O)cc1 | 15
16 | CC1CCCN(c2ccc3nncn3n2)C1 (stereo not drawn) | 18.5
17 | Cc1nc(NCCN)c(C#N)c2c1COC(C)(C)C2 | 16
18 | O=C(COc1cccc(NC(=O)c2ccccc2)c1)c1ccccc1 | 6.9
19 | Cc1ccc(-n2c(C)cc(C)c(C#N)c2=O)cc1 | 27.3
20 | O=S(=O)(Nc1ccccc1C(F)(F)F)c1ccc(-c2ccccn2)s1 | 4.58
21 | COc1ccc(-n2c3c(c(=O)[nH]c2=O)C(NC(C)=O)(C(F)(F)F)C(=O)N3)cc1 (stereo not drawn) | 10.1
22 | CC(=O)Nc1ccc(S(=O)(=O)NC2CC(=O)N(c3ccc(C)cc3)C2)cc1 (stereo not drawn) | 2.22

Row | Compound | hERG current change (%, negative = inhibition) at 10uM [%]
23 | O=C(Nc1ccc(F)cc1F)C1CCN(c2ncnc3c2sc2cccc(F)c23)CC1 | 3.98
24 | NS(=O)(=O)c1ccc(CCNC(=O)C(=O)NCC2OCCN2S(=O)(=O)c2cc(F)ccc2F)cc1 (stereo not drawn) | 11.7
25 | Cc1ccc(NC(=O)N2CCC(NC(=O)c3ccccc3C)CC2)cc1 | -4.77
26 | CC(C)n1c(SCC(=O)N2CCN(C)CC2)nc2c1c(=O)n(C)c(=O)n2C | 2.15
27 | O=C1/C(=C/c2cccc([N+](=O)[O-])c2)N2CCC1CC2 | -23.9
28 | CCC(C)n1c(SCC(=O)NC(=O)c2cccn2C)nc2ccccc2c1=O (stereo not drawn) | -17.7
29 | Cc1nn(C)c(C)c1CCC(=O)O | 17
30 | C=CCN(C(=O)c1csnn1)C(C(=O)NC(C)(C)C)c1ccncc1 (stereo not drawn) | 20.3
31 | O=C(Cn1nc(C(=O)O)c2ccccc2c1=O)c1c[nH]c2ccccc12 | -34.5
32 | Cn1c(SCC(=O)c2ccc(O)cc2O)nnc1-c1ccccc1 | 16.6
33 | CCOc1ccc(C2CC(=O)NC3=C2C(=O)CCC3)cc1 (stereo not drawn) | 8.7
34 | COc1ccc(/C=C(/C#N)C(=O)Nc2cccc(C)c2C)cc1C(=O)O | 11.6
35 | COC(=O)c1cccc(N(C(=O)CNC(=O)c2ccco2)C(C(=O)NC2CCCC2)c2ccco2)c1 (stereo not drawn) | 6.89
36 | COc1ccc(-c2ccc(=O)n(Cc3cc(=O)n4ccccc4n3)n2)cc1 | -24.5
37 | COc1ccc(OCC(=O)NCCCN2CCOCC2)cc1 | 10.7
38 | COc1ccc(S(=O)(=O)N2CCCCCC2)cc1NC(=O)CCCOc1ccccc1 | -14.8
39 | Cc1csc(NC(=O)c2cccc(C)c2C)n1 | -1.24
40 | Cc1cnn(Cc2ccccc2)c1N | 23.3
41 | CSc1nnc(-c2ccncc2)n1CCCN1CCCC1=O | 7.34
42 | CC(C)N1CCN(Cc2cccc([N+](=O)[O-])c2)CC1 | -2.13
43 | C/C(CC(=O)Nc1ccc(Cl)cc1Cl)=N\NC(=O)c1cnccn1 | -0.121
44 | NC(=O)[C@@H]1CCCNc2c(F)cc([N+](=O)[O-])cc2C(=O)N[C@@H](CCC(=O)O)C(=O)N[C@@H](CO)C(=O)N1 | 4.79

Row | Compound | hERG current change (%, negative = inhibition) at 10uM [%]
45 | O=C([O-])c1cc(-c2cccnc2)nc2ccc(Br)cc12.[K+] | 16.2
46 | CCCCC(NC(=O)c1ccccc1)C(=O)OCC(=O)N1c2ccccc2Sc2ccccc21 (stereo not drawn) | 13.5
47 | CN(C)C(=O)c1ccc(-c2n[nH]c(=O)c3ccccc23)cc1 | -22
48 | CC(NC(=O)Cn1cc(C(=O)C2CC2)c2ccccc21)c1ccccc1 (stereo not drawn) | 4.74
49 | Cc1nn(CC(=O)Nc2ccc(C(=O)N3CCCC3)cc2)c(=O)c2ccccc12 | -1.72
50 | O=C(CN1C(=O)NC2(CCCc3ccccc32)C1=O)NCc1ccc(Cl)cc1Cl (stereo not drawn) | -17.4
51 | Cn1c(O)c(C=Nc2ccc(Br)cc2)c(=O)n(C)c1=O | 5.63
52 | O=C(CCNS(=O)(=O)c1ccccc1)NNC(=O)C1COc2ccccc2O1 (stereo not drawn) | -6.71
53 | O=C1CC(=O)N(c2ccccc2)C(=O)N1c1ccccc1 | 2.76
54 | CC(Sc1ccccn1)C(=O)NC1CCCC1 (stereo not drawn) | 0.433
55 | O=C(O)CCC(=O)Nc1ccc(Br)cc1C(=O)c1ccc(Cl)cc1 | 5.74
56 | COCc1ccc(C(=O)N(C)C2CCCN(Cc3ccccc3F)C2)o1 (stereo not drawn) | 0.722
57 | COc1ccc2ccccc2c1CN1CCN(Cc2ccccc2)CC1 | -2.66
58 | Cc1ccc(NC(=O)C2CCN(S(C)(=O)=O)CC2)cc1Cl | 7.54
59 | CCOc1ccc(CNC(=O)C2CCCN(c3nnc(C)c4c(C)n(-c5ccccc5)nc34)C2)cc1 (stereo not drawn) | -29.6
60 | CC(C)CN1CCC(=O)N([C@H](COc2ccccc2)c2ccccc2)CC1 | -75.3
61 | C=CCn1c(=O)c2ccccc2n2c(SCC(=O)NCc3cccs3)nnc12 | -32.7
62 | O=C(CN1C(=O)S/C(=C\C=C\c2ccccc2)C1=O)Nc1ccc(C(=O)O)cc1 | 9.95
63 | CC(=O)N1CCN(C(=O)c2ccc(NS(=O)(=O)c3ccc4c(c3)OCCO4)cc2)CC1 | 10.4
64 | CCCCOc1c(Cl)cc(CNC(C)(C)CO)cc1OCC | -4
65 | CCC(C)(C)n1nnnc1C(c1cccc(C#N)c1)N1CCN(c2cc(C)ccc2C)CC1 (stereo not drawn) | -3.57
66 | COc1cc(=O)oc(-c2ccccc2)c1C(C)=O | 7.16

Row | Compound | hERG current change (%, negative = inhibition) at 10uM [%]
67 | COc1cnc(-c2ccccc2)nc1OC | 12.4
68 | CC1=Nn2c(nc(-c3ccccc3)c2-c2ccccc2)NC(=O)C1Br (stereo not drawn) | 2.55
69 | Cc1ccc(NC(=S)N2CCCCC2)cc1C | 16.4
70 | CC(C)CNC1CS(=O)(=O)CC1O.Cl (stereo not drawn) | -2.46
71 | N/C(Cc1ccc(Cl)cc1Cl)=N\OC(=O)Cc1ccccc1 | 7.08
72 | O=S(=O)(c1ccccc1F)N1CCC(c2nc3ccccc3[nH]2)CC1 | -13.3
73 | O=C(COc1ccc(S(=O)(=O)N2CCCC2)cc1)NCc1ccco1 | 5.11
74 | Cn1c(N)c(C(=O)COC(=O)CNS(=O)(=O)c2ccc(Cl)c(Cl)c2)c(=O)n(C)c1=O | -46
75 | Cc1ccc(-n2nc3c(c2NC(=O)c2ccc4c(c2)OCO4)CS(=O)(=O)C3)c(C)c1 | 10.8
76 | CC(OC(=O)c1ccc(S(=O)(=O)NCc2ccco2)cc1)C(=O)Nc1ccc(Cl)cn1 (stereo not drawn) | -39.8
77 | Cc1c(NS(=O)(=O)c2ccc3c(c2)CCN3C(=O)C2CC2)c(=O)n(-c2ccccc2)n1C | -15.5
78 | O=C(C[n+]1ccccc1)N/N=C/c1cccs1.[Cl-] | 12
79 | Nc1c(C(=O)N/N=C/c2ccccc2Cl)oc2nc(-c3ccccc3)cc(-c3ccco3)c12 | 22.1
80 | COc1ccccc1CCNC(=O)C1CCN(c2nnc(C)c3c(C)n(-c4ccc(C)cc4)nc23)CC1 | -23.4
81 | NC(=O)c1c(NC(=O)c2ccc(N3C(=O)CCC3=O)cc2)sc2c1CCCC2 | -7.65
82 | O=C(CSc1nnc(-c2ccccc2)o1)Oc1ccc(Br)cc1 | -6.63
83 | CC(=O)c1ccc(Sc2ccccc2)c([N+](=O)[O-])c1 | -3.46
84 | COc1cccc(CNS(=O)(=O)/C=C/c2ccc3c(c2)OCO3)c1 | -17.8
85 | COCCn1c(SCC(=O)NC2CCCC2)nc2c(c1=O)SCC2 | 6.14
86 | CCc1cccc(C)c1N1C(=O)CN(Cc2ccccc2)C1=S | -17.8
87 | COc1ccc(CCNC(=O)c2ccc(CS(=O)(=O)c3ccc(Br)cc3)o2)cc1OC | -13.2

— paper PMC4336329 (PLoS ONE, 2015)
